# In PubChem BioAssay AID624418 (National Center for Advancing Translational Sciences (NCATS), 2012):
# The campaign covered roughly 410,000 compounds. About 530 (0.13%) were called active. Inconclusive means that the source gave no clear call. Such entries were picked first, then a sample of the others. Calls follow the shape of the dose curve; as a rule, active = well fitted inhibition curve with a large enough effect; inconclusive = small, poorly fitted or top-dose-only effect, or another doubt; inactive = no such curve, though single readings can be large or run the other way. Potencies of inconclusive entries are doubtful fits and often do not repeat.
# Experiment: qHTS of GLP-1 Receptor Inverse Agonists: Cytotox Screen
# Conditions: HEK293 cAMP-luciferase reporter cells, luminescence, 24 h; series mostly up to 38.3 µM
# Procedure, shortened: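 Cells in DMEM/10% Nu serum/1% pen-strep, 1536-well format. Pre-incubated 12 h, dosed with 23 nL compound, incubated a further 24 h. Luciferase detection, 12 min at room temp, luminescence.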
# Potency is read from the fitted curve at half-maximal effect.
row,SMILES,Potency
1,Cc1ccc(N2CC(C(=O)N3CCOCC3)CC2=O)cc1C (centres undefined),"inconclusive: 12.6 µM [inhibitor, single point]"
2,Cc1cc(-n2c(C)cc(C(=O)CCl)c2C)no1,"inconclusive: 12.6 µM [inhibitor, partial curve, poor fit]"
3,COc1ccccc1N1CCN(C(=S)NC(=O)/C=C/c2ccc(F)cc2)CC1,"inconclusive: 28.2 µM [inhibitor, single point]"
4,COc1ccccc1C(CNC(=O)c1cccc(S(=O)(=O)Nc2ccc(F)cc2)c1)N1CCCC1 (centres undefined),"inconclusive: 11.2 µM [inhibitor, single point]"
5,Cc1nc(N2CCN(C)CC2)c2c(C)c(C(=O)Nc3ccc(C)c(F)c3)sc2n1,"inconclusive: 25.1 µM [inhibitor, partial curve, poor fit]"
6,Cc1ccc(C2CCN(C(=S)Nc3cccc(C)c3)C2)cc1 (centres undefined),"inconclusive: 14.1 µM [inhibitor, single point]"
7,O=C(NCc1cc([N+](=O)[O-])ccc1O)c1cccnc1Sc1ccc(Cl)cc1,"inconclusive: 12.6 µM [inhibitor, single point]"
8,COc1ccc(/C=C2\N=C(SC)N(c3ccccc3OC)C2=O)cc1,inactive
9,O=S(=O)(Nc1c(O)ccc2ccccc12)c1cccc2ccccc12,"inconclusive: 28.2 µM [inhibitor, single point]"
10,CN(CCC#N)C(=O)COC(=O)c1ccccc1C(=O)c1ccc(Cl)c([N+](=O)[O-])c1,"inconclusive: 28.2 µM [inhibitor, single point]"
11,C=CCOC(=O)C1=C(C)NC(=O)NC1c1cn(-c2ccccc2)nc1-c1cccs1 (centres undefined),"inconclusive: 10 µM [inhibitor, single point]"
12,Cc1ccc2[nH]cc(C(c3ccccc3)c3ccc(C)s3)c2c1 (centres undefined),"inconclusive: 28.2 µM [inhibitor, single point]"
13,CCC(C)NC(=O)CCc1c(C)nc2c(c(C)nn2-c2ccc(C)cc2)c1C (centres undefined),inactive
14,NC(=O)CCCn1c(C(=O)c2cc(Cl)c(N)c(Cl)c2)c2ccc(C(F)(F)F)cc2[n+]1[O-],"inconclusive: 2.24 µM [inhibitor, full curve]"
15,CCc1ccc2c(c1)/C(=C/C(=O)c1cccs1)C(=O)N2,"inconclusive: 22.4 µM [inhibitor, single point]"
16,CCOC(=O)CN1C(=O)C(Sc2n[nH]c(-c3ccc(O)cc3)n2)CCc2ccccc21 (centres undefined),"inconclusive: 8.91 µM [inhibitor, partial curve, poor fit]"
17,CN(C)CCNC(=O)C(=O)c1c(-c2ccccc2)cc2ccccn12,"inconclusive: 28.2 µM [inhibitor, single point]"
18,COc1ccc2c(c1OC)C(=O)N1c3cccc(Cl)c3C(=O)OC21 (centres undefined),"inconclusive: 1.58 µM [inhibitor, full curve, poor fit]"
19,O=C(NNC1=Nc2ccccc2SC1)c1ccccc1F,"inconclusive: 28.2 µM [inhibitor, partial curve, poor fit]"
20,CCN(CC)Cc1cc(Nc2ccnc3cc(Cl)ccc23)ccc1O,"inconclusive: 8.91 µM [inhibitor, partial curve, poor fit]"
21,O=C(NCc1cccnc1)C1CCN(Cc2cc3ccccc3n2Cc2ccccc2)CC1,inactive
22,COc1cccc(C2C(C(=O)Nc3ccccc3)=C(C)N=c3s/c(=C/c4ccc(OCC(=O)O)cc4)c(=O)n32)c1 (centres undefined),inactive

row,SMILES,Potency
1,O=C(O)c1ccc(N=NN2CCOCC2)cc1,"inconclusive: 10 µM [inhibitor, single point]"
2,N#C/C(=C/c1ccc(N2CCCCCC2)o1)c1ccc(F)cc1,"inconclusive: 12.6 µM [inhibitor, single point]"
3,Cc1ccc2nc(SCC(=O)NC3CCCc4ccccc43)[nH]c2c1 (centres undefined),inactive
4,COc1cccc(-c2nc(N3CCN(C)CC3)c3ccccc3n2)c1O,"inconclusive: 11.2 µM [inhibitor, single point]"
5,CCN(CC)S(=O)(=O)c1ccc2c(c1)N(CC(=O)Nc1c(C)cc(C)cc1C)C(=O)CS2,inactive
6,CCOC(=O)COc1ccc(/C=C2/SC(=Nc3ccccc3)N(Cc3cccnc3)C2=O)cc1OC,"inconclusive: 10 µM [inhibitor, partial curve]"
7,Cc1ccc(Cc2c(-c3ccccc3)nc3cc(C)ccn23)cc1,"inconclusive: 10 µM [inhibitor, single point]"
8,CCc1cccc(CC)c1NC(=O)C1CSC2(C)CCC(=O)N12 (centres undefined),inactive
9,O=C(NNc1c2ccccc2nc2ccccc12)c1ccc(O)cc1O,"inconclusive: 11.2 µM [inhibitor, single point]"
10,CCc1nnc(NC(=O)CSc2nnc(C(C)NC(=O)c3ccccc3F)n2C)s1 (centres undefined),"inconclusive: 8.91 µM [inhibitor, partial curve]"
11,COCC(=O)O[C@]1(CCN(C)CCCc2nc3ccccc3[nH]2)CCc2cc(F)ccc2[C@@H]1C(C)C,"inconclusive: 28.2 µM [inhibitor, single point]"
12,Cc1ccccc1CS(=O)(=O)c1ncc(Cl)c(C(=O)Nc2nnc(C(C)C)s2)n1,"inconclusive: 28.2 µM [inhibitor, single point]"
13,O=C(C1CC(=O)N(c2ccccc2)C1)N1CCN(c2ccc(F)cc2)CC1 (centres undefined),inactive
14,Oc1ccc(NCc2ccccc2OCc2ccccc2Cl)cc1,"inconclusive: 28.2 µM [inhibitor, partial curve, poor fit]"
15,Cc1cc(C)nc(NC(=S)Nc2cccc(Cl)c2Cl)c1,"inconclusive: 1.12 µM [inhibitor, full curve, poor fit]"
16,Cc1ccc(C(=O)OCn2ncc(Cl)c(Cl)c2=O)cc1,"inconclusive: 6.31 µM [inhibitor, partial curve, poor fit]"
17,Cc1ccc(S(=O)(=O)N2C[C@H]3n4c(=O)ccc(=O)n4C[C@H](OC(=O)Nc4c(C)noc4C)[C@@]3(O)C2)cc1,inactive
18,Cc1csc(N/N=C/c2ccc(O)c([N+](=O)[O-])c2)n1,"inconclusive: 5.62 µM [inhibitor, partial curve, poor fit]"
19,Cc1ccc(NC(=S)NCCSc2ccc(Cl)cc2)c(C)c1,"inconclusive: 28.2 µM [inhibitor, single point]"
20,CC(C)N1CCC2(CC1)N=C(c1ccc3c(c1)OCO3)CC(c1cc(Cl)ccc1O)N2 (centres undefined),"inconclusive: 11.2 µM [inhibitor, partial curve, poor fit]"
21,COc1ccc(-c2cc(CNC(=O)CCl)on2)cc1,"inconclusive: 12.6 µM [inhibitor, partial curve, poor fit]"
22,Cn1nc(-c2ccc(C(=O)Nc3ccc(OC(F)(F)F)cc3)cc2)c2ccccc2c1=O,inactive

row,SMILES,Potency
1,Cc1cc(C(=O)NNC(=O)CCCOc2ccccc2)c(C)o1,inactive
2,CCC(C)(C)NC(=S)Nc1ccc(-c2nc3ccc(C)cc3s2)cc1,inactive
3,Nc1nc(N)c2cc(CNc3ccc(Cl)c(Cl)c3)ccc2n1,"inconclusive: 7.08 µM [inhibitor, partial curve, poor fit]"
4,O=c1cc(CN2CCN(C/C=C/c3ccccc3)CC2)c2cc(O)ccc2o1,"inconclusive: 28.2 µM [inhibitor, single point]"
5,Cc1[nH]n(-c2ccccc2)c(=O)c1/C=N/N(C)c1ccccc1,inactive
6,CC(C)N1CCN(C(=O)c2ccc(OC3CCN(CCc4ccccc4)CC3)cc2)CC1,"inconclusive: 10 µM [inhibitor, partial curve]"
7,CCc1cc2c(NC3CCCC3)ncnc2s1,"inconclusive: 10 µM [inhibitor, partial curve, poor fit]"
8,Clc1ccc(CN2C3=NCCN3c3ccccc32)cc1Cl,"inconclusive: 20 µM [inhibitor, single point]"
9,CN(C)CCCN(C(=O)c1ccc(Br)s1)c1nc2cc3c(cc2s1)OCCO3,"inconclusive: 12.6 µM [inhibitor, single point]"
10,C/C(=N\NC(=O)C(=O)Nc1cccc(C(F)(F)F)c1)c1ccc(Cl)s1,"inconclusive: 3.55 µM [inhibitor, full curve, poor fit]"
11,Cc1ccccc1C(=O)Nc1ccc2oc(-c3ccc(Cl)c(Cl)c3)nc2c1,inactive
12,COc1ccc(-n2c(COc3cccc(C)c3)nnc2SCC(=O)O)cc1,"inconclusive: 1 µM [inhibitor, partial curve, poor fit]"
13,O=C(NCCN1CCOCC1)NC1(C(F)(F)F)Oc2ccccc2O1,"inconclusive: 12.6 µM [inhibitor, partial curve, poor fit]"
14,CN1C(=O)C(O)(CC(=O)c2ccccn2)c2cc(Br)ccc21 (centres undefined),"inconclusive: 10 µM [inhibitor, partial curve]"
15,CC(C)C1O/C(=N/C(=O)Nc2ccc(Cl)c(Cl)c2)NC1=O (centres undefined),inactive
16,Cc1ccc(OCC(O)Cn2c(=N)n(Cc3ccccc3)c3ccccc32)cc1 (centres undefined),"inconclusive: 10 µM [inhibitor, partial curve, poor fit]"
17,CCOc1ccc(-n2nnnc2SCC(=O)c2ccccc2)cc1,"inconclusive: 10 µM [inhibitor, partial curve, poor fit]"
18,COc1ccc(-n2c(SCC(=O)Nc3ccc(Cl)cc3)nc(O)c(Cc3ccccc3)c2=O)cc1,"inconclusive: 31.6 µM [inhibitor, single point]"
19,CCC(/C=C1\Oc2ccc(OC)cc2N1C)=C\c1sc2ccccc2[n+]1CCCS(=O)(=O)[O-],inactive
20,Cc1cc(Br)ccc1OCCCCN1CCCCC1,"inconclusive: 22.4 µM [inhibitor, single point]"
